From article PMC5216124, “Cell division orientation is coupled to cell–cell adhesion by the E-cadherin/LGN complex” (Nature Communications, 2017) come the findings set out here.

Amino acid sequences for entries named in this document (tags omitted). A change or cut given only in a name is not applied to a line headed by its entry. Chains listed by the source or under a name are the forms on record and can include a tag or linker. Residues count along the entry.
E-cadherin juxtamembrane domain fused to the RFP-tagged mitochondrial localization signal of ActA (P09803, residues 736-783): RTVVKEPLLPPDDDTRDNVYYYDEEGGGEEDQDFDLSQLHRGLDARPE
E-cadherin JMD D758A, targeted to mitochondria (P09803, form named): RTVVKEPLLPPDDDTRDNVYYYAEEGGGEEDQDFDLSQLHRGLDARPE
E-cadherin JMD with DEE758-760AAA mutation, targeted to mitochondria (P09803, form named): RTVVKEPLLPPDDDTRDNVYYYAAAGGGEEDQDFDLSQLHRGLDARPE

The target in test [1] is T1, LGN-TPR:S-tag (human, UniProt P81274 8-311).
T1 construct: LGN, human, NM_013296.4, TPR repeats, amino acids 8-311; also called LGN-TPR with C-terminal S-tag; not shown: S-tag, C-terminal, kept
T1 sequence (looked up): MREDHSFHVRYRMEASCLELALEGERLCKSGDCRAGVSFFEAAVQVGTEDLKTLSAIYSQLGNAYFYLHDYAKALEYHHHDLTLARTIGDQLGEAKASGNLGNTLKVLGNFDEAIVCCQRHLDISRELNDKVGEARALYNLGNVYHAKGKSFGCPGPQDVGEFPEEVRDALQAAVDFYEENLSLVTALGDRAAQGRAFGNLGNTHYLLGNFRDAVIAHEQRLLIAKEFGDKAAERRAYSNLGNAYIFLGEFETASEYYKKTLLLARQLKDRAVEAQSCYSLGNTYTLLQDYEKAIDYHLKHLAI
Nature of the test: pull-down; in vitro competition: E-cad-cyto/LGN-TPR:S-tag complex (GST cleaved off with TEV) held on S-protein agarose by the S-tag; 100 μg NuMA (1808-1988) added, 4 °C overnight; blotted for LGN and E-cadherin; both purified.

Test [2] has as its target E-cadherin JMD D758A, targeted to mitochondria (mouse) (UniProt P09803). As to the kind of experiment: mitochondrial co-recruitment assay (live-cell confocal imaging); E-cadherin tail constructs fused to RFP-tagged MLS of ActA held at mitochondria of U2OS cells; recruitment of co-expressed YFP-LGN-TPR or GFP-p120-catenin scored as fluorescence at mitochondria.
Test [3] deals with E-cadherin JMD with DEE758-760AAA mutation, targeted to mitochondria (mouse) (UniProt P09803). The test is described as above.
Test [4] addresses E-cadherin juxtamembrane domain fused to the RFP-tagged mitochondrial localization signal of ActA (mouse) (UniProt P09803). Described as above.
The target in test [5] is GST-tagged cytosolic tail of mouse E-cadherin (mouse) (UniProt P09803). As to the kind of experiment: pull-down; GST pull-down on glutathione agarose from cleared lysate of E. coli co-expressing both proteins; wash 20 mM Tris-HCl pH 7.5, 150 mM NaCl, 2.5 mM DTT, 0.005% Tween, 2.5% glycerol, 4 °C; blotted for GST and LGN.

Results are given in words; binding and its absence hold for the method and conditions named. For some of these results: Binding seen in cells or lysates may run through a third protein. Some entries that bind do so weakly or less than the wild type. For some of these results: Tags and fused reporters may be left off the sequences shown.

Consider “E-cadherin cytosolic tail, GST cleaved off (from UniProt P09803 736-783) (domain or fragment)”, for which, in test [1], the binding entry is on record as “binds”.

B1: YFP-tagged TPR repeats of human LGN (domain or fragment, UniProt P81274 8-351)
chain: MREDHSFHVRYRMEASCLELALEGERLCKSGDCRAGVSFFEAAVQVGTEDLKTLSAIYSQLGNAYFYLHDYAKALEYHHHDLTLARTIGDQLGEAKASGNLGNTLKVLGNFDEAIVCCQRHLDISRELNDKVGEARALYNLGNVYHAKGKSFGCPGPQDVGEFPEEVRDALQAAVDFYEENLSLVTALGDRAAQGRAFGNLGNTHYLLGNFRDAVIAHEQRLLIAKEFGDKAAERRAYSNLGNAYIFLGEFETASEYYKKTLLLARQLKDRAVEAQSCYSLGNTYTLLQDYEKAIDYHLKHLAIAQELNDRIGEGRACWSLGNAYTALGNHDQAMHFAEKHLEI
As for B1, the binding result was “no binding” in test [2], “no binding” in test [3] and “binds” in test [4].

B2: TPR repeats of human LGN (domain or fragment, UniProt P81274 8-311)
chain: T1 sequence (looked up)
With B2, the binding result in test [5] is “binds”.

B3: GFP-p120-catenin (protein, UniProt O60716 1-968)
chain: MDDSEVESTASILASVKEQEAQFEKLTRALEEERRHVSAQLERVRVSPQDANPLMANGTLTRRHQNGRFVGDADLERQKFSDLKLNGPQDHSHLLYSTIPRMQEPGQIVETYTEEDPEGAMSVVSVETSDDGTTRRTETTVKKVVKTVTTRTVQPVAMGPDGLPVDASSVSNNYIQTLGRDFRKNGNGGPGPYVGQAGTATLPRNFHYPPDGYSRHYEDGYPGGSDNYGSLSRVTRIEERYRPSMEGYRAPSRQDVYGPQPQVRVGGSSVDLHRFHPEPYGLEDDQRSMGYDDLDYGMMSDYGTARRTGTPSDPRRRLRSYEDMIGEEVPSDQYYWAPLAQHERGSLASLDSLRKGGPPPPNWRQPELPEVIAMLGFRLDAVKSNAAAYLQHLCYRNDKVKTDVRKLKGIPVLVGLLDHPKKEVHLGACGALKNISFGRDQDNKIAIKNCDGVPALVRLLRKARDMDLTEVITGTLWNLSSHDSIKMEIVDHALHALTDEVIIPHSGWEREPNEDCKPRHIEWESVLTNTAGCLRNVSSERSEARRKLRECDGLVDALIFIVQAEIGQKDSDSKLVENCVCLLRNLSYQVHREIPQAERYQEAAPNVANNTGPHAASCFGAKKGKDEWFSRGKKPIEDPANDTVDFPKRTSPARGYELLFQPEVVRIYISLLKESKTPAILEASAGAIQNLCAGRWTYGRYIRSALRQEKALSAIADLLTNEHERVVKAASGALRNLAVDARNKELIGKHAIPNLVKNLPGGQQNSSWNFSEDTVISILNTINEVIAENLEAAKKLRETQGIEKLVLINKSGNRSEKEVRAAALVLQTIWGYKELRKPLEKEGWKKSDFQVNLNNASRSQSSHSYDDSTLPLIDRNQKSDKKPDREEIQMSNMGSNTKSLDNNYSTPNERGDHNRTLDRSGDLGDMEPLKGTTPLMQDEGQESLEEELDVLVLDDEGGQVSYPSMQKI
As for B3, the binding result in test [2] and in test [4] was “binds” each time.
